# “And” between values parts separate entries of the source, which are not always exact repeats. Identical values can stand only once. Among all 420,000 compounds or so, about 50,000 (12%) were called active. Inconclusive means that the source gave no clear call. Such entries were picked first, then a sample of the others. Calls come from the whole dose curve; as a rule, active = well fitted inhibition curve with a large enough effect; inconclusive = small, poorly fitted or top-dose-only effect; inactive = flat fitted curve, though single readings scatter. Potencies of inconclusive entries are left out as doubtful fits.
# Test: qHTS for Inhibitors of human tyrosyl-DNA phosphodiesterase 1 (TDP1): qHTS in cells in presence of CPT; note: nearly all actives have a fitted effect of over 55% in size
# Conditions: chicken DT40 Tdp1-/-;hTDP1 cells + 20 nM CPT, ATP luminescence, 48 h; activity change, negative = growth inhibition: at 46.2 µM (top of the series)
# Procedure, shortened: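 Cell growth measured by CellTiter-Glo luminescence after a minimum 48 h, 37 C compound exposure with 20 nM CPT in Tdp1-knockout DT40 cells stably expressing hTDP1, seeded 400/well; qHTS titration format.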
# % is set by controls: 0 for no effect and ±100 for the full control effect; potency is the fitted concentration of half-maximal effect; tags give direction and shape of the fitted curve.
SMILES,Potency,"activity change, negative = growth inhibition"
O=C(N[C@@H]1C/C=C\C[C@@H](CC(=O)N(CCO)Cc2ccccc2)C(=O)NC[C@H](c2ccccc2)OC1=O)OCC1c2ccccc2-c2ccccc21,active: 2.59 µM,
OC(COc1ccccc1F)CN1CCC(Cc2ccccc2)CC1 (stereo not drawn),,inconclusive: -33% [inhibitor]
COc1ccccc1-c1cc(C(=O)N2CCN(c3ccccc3)CC2)no1,"inconclusive [inhibitor, partial curve]",
COc1ccc(-c2noc(CSc3nnc(CCc4ccccc4)n3-c3ccccc3)n2)cc1OC,active: 14.6 µM,
COc1ccc(NC(=O)CN(C)C(=O)CSCC(=O)Nc2ccc(C)cc2)cc1,"inconclusive [inhibitor, single point]",
O=C(COC(=O)c1ccccc1Oc1ccccc1)Nc1ccc(Br)cc1,,inactive: 1.11%
COc1cccc(/C=C/C(=O)N2CCN(c3n[nH]c(=O)[nH]c3=O)CC2)c1OC,,inactive: -7.08%
COc1cc(S(=O)(=O)N2CCN(c3ccccn3)CC2)ccc1Br,,inactive: -12.9%
C=CCn1c(SCC(=O)N2CCc3ccccc3C2)nc2sc(C)cc2c1=O,"inconclusive [inhibitor, single point]",
COc1cccc(N2CCN(C(=O)c3oc4ccccc4c3NC(=O)CCc3cc(OC)no3)CC2)c1,,inactive: -55.4%
CC(OC(=O)CN1C(=O)NC2(CCCCC2C)C1=O)c1ccccc1 (stereo not drawn),,inactive: -4.49%
COc1ccc(-n2c(O)c(C=NCc3ccccn3)c3ccccc3c2=O)c(OC)c1,"inconclusive [inhibitor, single point]",
COc1ccc(NC(=O)C(c2ccccc2)N2Cc3ccccc3C2=O)cc1 (stereo not drawn),,inactive: -17.9%
Cc1ccc(NC(=O)CN(C)c2ccc(S(=O)(=O)N3CCN(C)CC3)cn2)cc1,"inconclusive [inhibitor, single point]",
c1coc(CN(Cc2cccs2)Cc2nnnn2C2CCCCC2)c1,"inconclusive [inhibitor, partial curve, poor fit]",
CCOc1ccc2nc(NC(=O)C3CCCN(S(=O)(=O)c4cccs4)C3)sc2c1 (stereo not drawn),"inconclusive [inhibitor, single point]",
Cc1nnc(-c2cnn(C)c2N)n1CCCN1CCOCC1,,inactive: -19.1%
CC(C)N(C)c1ncnc2c1ncn2[C@H]1CN(Cc2cccnc2)C[C@@H](CO)O1,,inactive: 5.24%
CCOC(=O)Cn1c(C2CC(=O)N(c3ccc(C)cc3)C2)nc2ccccc21 (stereo not drawn),,inactive: -4.09%
CCN(CC)S(=O)(=O)c1ccc(NC(=O)CN(c2cccc(F)c2)S(C)(=O)=O)cc1,,inactive: -21.7%
CCOC(=O)N1CCN(C(=O)C(=O)NNC(=O)COc2ccc(Cl)cc2)CC1,,inactive: 5.12%
COc1ccccc1/C=C/C(=O)NC(=S)N1CCOCC1,,inactive: -1.22%
COc1ccc(N2CCN(C(c3ccccc3)c3nnnn3Cc3ccc(F)cc3)CC2)cc1 (stereo not drawn),"inconclusive [inhibitor, single point]",
O=c1c(-c2ccc(F)c(F)c2)nc2cncnc2n1Cc1ccccc1,"inconclusive [inhibitor, partial curve, poor fit]",
CCc1cc(C(c2ccc(OC)c(OC)c2)N2CCOCC2)c(NC(=O)c2ccccc2)s1 (stereo not drawn),"inconclusive [inhibitor, single point]",

SMILES,Potency,"activity change, negative = growth inhibition"
CCOC(=O)C(=O)Nc1cc([N+](=O)[O-])ccc1C,,inactive: 2.33%
CCOc1ccc(C(C)=O)cc1CSc1nc(C)cc(C)n1,"inconclusive [inhibitor, single point]",
Nc1ccc(C(=O)OCC(=O)Nc2ccc([N+](=O)[O-])cc2C(F)(F)F)cc1,"inconclusive [inhibitor, partial curve, poor fit]",
O=C(Nc1ccc(NC(=O)c2ccccc2O)cc1)Nc1ccc(F)cc1F,,inactive: -5.06%
CC(NC(=O)COc1ccc(/C=N/NC(=O)CO)cc1)c1ccccc1 (stereo not drawn),,inactive: -18.6%
Cc1ccccc1OCCn1cc(C(=O)C2CCCCC2)c2ccccc21,"inconclusive [inhibitor, single point]",
O=C1C(=Cc2cccc(O)c2O)SC(=S)N1CCCN1CCOCC1,active: 13 µM,
COc1ccc(N2CCN(C(=O)CN=C3NS(=O)(=O)C(c4ccc(C)cc4)=C3C)CC2)cc1,,inactive: -17.2%
CCCN1CC=C2C(C#N)=C(N)C(C#N)(C#N)C(c3cccc(OC)c3OC)C2C1 (stereo not drawn),"inconclusive [inhibitor, single point]",
Cc1ccccc1C(=O)NC(C)C1CC2CCC1C2 (stereo not drawn),,inactive: 13%
O=C(O)c1cccc(Nc2ccncc2[N+](=O)[O-])c1,"inconclusive [inhibitor, single point]",
CSc1ccc(/C=C(\C#N)C(=O)NC2CCCCC2)cc1,,inconclusive: -34.2% [inhibitor]
Cc1ccccc1Cn1ccc(NC(=O)c2cc3ncc(Br)cn3n2)n1,,inactive: 7.09%
CCOC(=O)C1=C(CC)Nc2ccccc2N=C1NC(=O)c1ccc(OC)c(S(=O)(=O)N2CCOCC2)c1,"inconclusive [inhibitor, single point]",
CCC(=O)N1c2ccccc2CC1C(=O)NCCc1ccc(SC)cc1 (stereo not drawn),"inconclusive [inhibitor, partial curve]",
CCCCN(C)CC(O)Cn1cc(/C=C/C(=O)c2cccs2)c2ccccc21 (stereo not drawn),active: 18.4 µM,
CSc1cccc(NC(=S)NCCCN2CCN(c3ccc(F)cc3)CC2)c1,,inactive: 12.6%
CCC(c1nc2ccccc2c(=O)n1-c1cccnc1)N1C(=O)c2ccccc2C1=O (stereo not drawn),,inactive: -4.26%
CCOC(=O)C[C@H]1c2ccc(C(F)(F)F)cc2S(=O)(=O)N1C1CCCC1,"inconclusive [inhibitor, single point]",
Cc1[nH]c2ccccc2c1SCC(=O)N1CCN(c2ccccc2)CC1,"inconclusive [inhibitor, single point]",
C/C(Cn1nnc([N+](=O)[O-])n1)=N\NC(=O)c1ccccc1Cl,active: 23.1 µM,
CCCNC(=O)CN(CCc1ccccc1)S(C)(=O)=O,"inconclusive [inhibitor, single point]",
Cc1cccc(-c2nc3c(c(SCC(=O)N(C)C)n2)CCCC3)c1,"inconclusive [inhibitor, single point]",
CCC(=O)Nc1ccc2c(c1)Cc1cc([N+](=O)[O-])ccc1-2,"inconclusive [inhibitor, partial curve]",
CCNC(=O)N1CCN(CCCC(c2ccc(F)cc2)c2ccc(F)cc2)CC1,active: 9.44 µM and active: 20.6 µM,

SMILES,Potency,"activity change, negative = growth inhibition"
CCOC(=O)c1sc(NC(=O)c2cccc(S(=O)(=O)N3CCc4ccccc43)c2)c(C#N)c1C,active: 5.8 µM,
CCOC(=O)C1=CCC(c2ccccc2)N(S(=O)(=O)c2ccccc2)C1 (stereo not drawn),active: 23.1 µM,
O=S(=O)(Nc1ccccc1)c1ccc(NS(=O)(=O)c2cccs2)cc1,,inactive: 25.5%
O=C(Nc1ccc2c(c1)OCO2)c1cc(-c2cccc(Cl)c2)on1,,inactive: -12.5%
O=C(CCNC(=O)c1ccccc1Cl)N/N=C\c1ccc(O)cc1,"inconclusive [inhibitor, single point]",
Cc1ccc(NC(=O)NCc2nc3ccccc3n2C)cc1,"inconclusive [inhibitor, single point]",
O=C(Nc1ccncc1)Nc1ccc(Cl)cc1,"inconclusive [inhibitor, single point]",
O=C1c2ccccc2C(=O)N1CCCc1c[nH]c2ccc(Cl)cc12,,inactive: -1.13%
COc1cccc(NC(=S)N(CCCN2CCCC2)Cc2cccn2Cc2ccc(Cl)cc2)c1,"inconclusive [inhibitor, single point]",
CCOC(=O)N1CCC(Nc2ccc(N3C(=O)C4CCCCC4C3=O)cc2[N+](=O)[O-])CC1 (stereo not drawn),,inactive: -22%
Cc1ccc(C)c2nc(SCC(=O)N3CCCc4ccccc43)c(C#N)cc12,"inconclusive [inhibitor, single point]",
CN(C)C(CNc1ncnc2sc3c(c12)CCCC3)c1ccco1 (stereo not drawn),"inconclusive [inhibitor, partial curve]",
Cc1ccc(C(=O)Nc2ccccc2N2CCCC2)cc1S(=O)(=O)N1CCOCC1,"inconclusive [inhibitor, single point]",
CCOc1ccc(N(CC(=O)Nc2ccc(Cl)cc2)S(C)(=O)=O)cc1,"inconclusive [inhibitor, partial curve]",
CC1=C(C(=O)OC2CCCC2)C(c2ccc(C)o2)C2=C(CC(c3cccs3)CC2=O)N1 (stereo not drawn),"inconclusive [inhibitor, single point]",
CN(C(=O)c1ccccc1OCc1ccc(Cl)cc1)c1ccccc1,"inconclusive [inhibitor, single point]",
COc1cccc(C(=O)NCC(=O)NCc2cc(=O)n(C)c(=O)n2C)c1,,inactive: -3.31%
CC1CCCN(C(=O)CN2CCC(c3nc4ccc(Cl)cc4[nH]3)CC2)C1 (stereo not drawn),"inconclusive [inhibitor, single point]",
COC(=O)C1C(=O)C(C(=O)/C=C/c2ccccc2)C(=O)CC1(C)C (stereo not drawn),"inconclusive [inhibitor, single point]",
CCOc1ccc(-c2csc(NC(=O)c3cccc(N4C(=O)CCC4=O)c3)n2)cc1,"inconclusive [inhibitor, single point]",
Cc1ccc(CNC(=O)CS(=O)Cc2nc(-c3ccccc3F)oc2C)cc1 (stereo not drawn),,inactive: -19.1%
CCOc1ccccc1OCCCC(=O)Nc1cc(S(=O)(=O)N2CCOCC2)ccc1OC,,inactive: -8.32%
Cc1cc(Cl)ccc1NC(=S)NCc1ccc(Cl)cc1,"inconclusive [inhibitor, single point]",
